{"source": "PubChem BioAssay (NCATS)", "note": "Several values for one entry are separate records, joined by “and”; a condition that tells them apart may be missing. Equal entries are not always repeated. Inconclusive means that the source gave no clear call. Such entries were picked first, then a sample of the others. Potencies beside an inconclusive call are fits to weak or partial responses and may not hold up. Activity calls are given as the source filed them. Calls come from the whole dose curve; as a rule, active = well fitted curve in the direction sought with a large enough effect; inconclusive = small, poorly fitted or top-dose-only effect, or another doubt; inactive = no such curve, though single readings can be large; an effect the other way counts as inactive or inconclusive. Note: nearly all actives have a fitted effect of over 70% in size. Potency is the fitted concentration of half-maximal effect; tags give direction and shape of the fitted curve."}
{"experiment": "Primary qHTS for inhibitors of nuclear receptor binding SET domain protein 2 (NSD2) in an isogenic RCH-ACV NSD2 p.E1099K mutant (9B) (AID 1645876); for activity change, negative = viability loss: % is set by controls: 0 for no effect and ±100 for the full control effect", "conditions": "RCH-ACV NSD2 E1099K (9B) viability, CellTiter-Glo, 72 h; series mostly up to 44.9 µM; activity change, negative = viability loss: at the top concentration"}
{"smiles": "O=C(Nc1nc2ccccc2n1CCN1CCOCC1)c1cccc([N+](=O)[O-])c1", "Potency": "inconclusive: 14.6 µM [inhibitor, partial curve]"}
{"smiles": "Nc1ccc(N=Nc2ccccc2)c(N)n1", "Potency": "inconclusive: 10.6 µM [inhibitor, partial curve]"}
{"smiles": "O=C(Nc1ccccc1)OCC(CN1CCCCC1)OC(=O)Nc1ccccc1", "note": "(stereo not given)", "Potency": "inconclusive: 33.5 µM [inhibitor, single point]"}
{"smiles": "CCN(CC)CCNC(=O)COc1ccc(OC)cc1", "activity change, negative = viability loss": "inactive: 6.65%"}
{"smiles": "NC(=O)C(c1ccccc1)(c1ccccc1)[C@@H]1CCN(CCc2ccc3c(c2)CCO3)C1", "Potency": "inconclusive: 29.9 µM [inhibitor, single point]"}
{"smiles": "N#CC1(c2ccc(NC(=O)c3cccnc3NCc3ccncc3)cc2)CCCC1", "Potency": "inconclusive: 11.6 µM [inhibitor, partial curve]"}
{"smiles": "O=C1CCc2ccc(OCCCCN3CCN(c4cccc(Cl)c4Cl)CC3)cc2N1", "Potency": "inactive and inconclusive: 7.42 µM [inhibitor, full curve]"}
{"experiment": "Primary qHTS for inhibitors of nuclear receptor binding SET domain protein 2 (NSD2) in an RCH-ACV wild type WT cells (2C) (AID 1645877)", "conditions": "RCH-ACV NSD2 WT (2C) viability, CellTiter-Glo, 72 h; series mostly up to 44.9 µM; activity change, negative = cell killing: at the top concentration"}
{"smiles": "OCc1cc(C(O)CNCCCCCCOCCCCc2ccccc2)ccc1O", "note": "(stereo not given)", "Potency": "inconclusive: 26.6 µM [inhibitor, single point]"}
{"smiles": "CCCCc1oc2ccccc2c1C(=O)c1cc(I)c(OCCN(CC)CC)c(I)c1", "Potency": "inconclusive: 33.5 µM [inhibitor, single point] and inconclusive: 26.3 µM [inhibitor, single point]"}
{"smiles": "O=C(NCC1CCCCN1)c1cc(OCC(F)(F)F)ccc1OCC(F)(F)F", "note": "(stereo not given)", "Potency": "inconclusive: 26.6 µM [inhibitor, single point]"}
{"smiles": "CS(=O)(=O)N(Cc1ccco1)CC(O)Cn1c2ccccc2c2ccccc21", "note": "(stereo not given)", "Potency": "inconclusive: 23 µM [inhibitor, single point] and inconclusive: 18.6 µM [inhibitor, partial curve]"}
{"smiles": "CCN(CC)c1ccc(C(=C2C=CC(=[N+](CC)CC)C=C2)c2cc(S(=O)(=O)O)ccc2S(=O)(=O)[O-])cc1", "Potency": "inconclusive: 9.44 µM [inhibitor, partial curve]"}
{"smiles": "CCCCCCCCCCCCOCCOCCOCCOCCOCCOCCOCCOCCOCCO", "Potency": "active: 11.9 µM"}
{"smiles": "C[C@H](NC(=O)C(=O)Nc1ccccc1C(C)(C)C)C(=O)N[C@@H](CC(=O)O)C(=O)COc1c(F)c(F)cc(F)c1F", "Potency": "inconclusive: 3.32 µM [inhibitor, full curve, poor fit]"}
{"smiles": "OC[C@@H](O)[C@@H](O)[C@H](O)[C@H](O)CO", "Potency": "inconclusive: 33.5 µM [inhibitor, single point]"}
{"smiles": "CCN1/C(=C/C=C/c2sc3ccccc3[n+]2CC)Sc2ccccc21", "Potency": "inconclusive: 14.6 µM [inhibitor, partial curve, poor fit]"}
{"smiles": "O=C(NOCC1CC1)c1ccc(F)c(F)c1Nc1ccc(I)cc1Cl", "Potency": "inconclusive: 4.68 µM [inhibitor, partial curve]"}
{"smiles": "CNCCCCOc1ccccc1Cc1ccccc1", "Potency": "inconclusive: 18.8 µM [inhibitor, single point]"}
{"smiles": "COc1cc(NC(C)CCCN)c2ncccc2c1", "note": "(stereo not given)", "Potency": "active: 5.31 µM"}
{"smiles": "O=C(Nc1nc2ccccc2n1CCN1CCOCC1)c1cccc([N+](=O)[O-])c1", "Potency": "inconclusive: 10.3 µM [inhibitor, partial curve]"}
{"smiles": "Nc1ccc(N=Nc2ccccc2)c(N)n1", "Potency": "inconclusive: 23.7 µM [inhibitor, single point]"}
{"smiles": "O=C(Nc1ccccc1)OCC(CN1CCCCC1)OC(=O)Nc1ccccc1", "note": "(stereo not given)", "Potency": "inconclusive: 33.5 µM [inhibitor, single point]"}
{"smiles": "NC(=O)C(c1ccccc1)(c1ccccc1)[C@@H]1CCN(CCc2ccc3c(c2)CCO3)C1", "Potency": "inconclusive: 29.9 µM [inhibitor, single point]"}
{"smiles": "N#CC1(c2ccc(NC(=O)c3cccnc3NCc3ccncc3)cc2)CCCC1", "Potency": "inconclusive: 11.6 µM [inhibitor, partial curve]"}
{"smiles": "O=C1CCc2ccc(OCCCCN3CCN(c4cccc(Cl)c4Cl)CC3)cc2N1", "Potency": "inconclusive: 8.41 µM [inhibitor, partial curve] and inconclusive: 7.42 µM [inhibitor, full curve]"}
